Measured values from PMC4336329 (PLoS ONE, 2015).
Among all 310,000 compounds or so, about 2,200 (0.71%) showed an effect of 50% or more. The effect is printed as a negative number. The list shows a part of the results.

What follows are molecules tested against human ether-à-go-go-related gene (hERG) potassium channel (human, UniProt Q12809) (assay: primary screen, population patch clamp on CHO cells stably expressing hERG).
Chain of human ether-à-go-go-related gene (hERG) potassium channel (Q12809 whole entry, looked up): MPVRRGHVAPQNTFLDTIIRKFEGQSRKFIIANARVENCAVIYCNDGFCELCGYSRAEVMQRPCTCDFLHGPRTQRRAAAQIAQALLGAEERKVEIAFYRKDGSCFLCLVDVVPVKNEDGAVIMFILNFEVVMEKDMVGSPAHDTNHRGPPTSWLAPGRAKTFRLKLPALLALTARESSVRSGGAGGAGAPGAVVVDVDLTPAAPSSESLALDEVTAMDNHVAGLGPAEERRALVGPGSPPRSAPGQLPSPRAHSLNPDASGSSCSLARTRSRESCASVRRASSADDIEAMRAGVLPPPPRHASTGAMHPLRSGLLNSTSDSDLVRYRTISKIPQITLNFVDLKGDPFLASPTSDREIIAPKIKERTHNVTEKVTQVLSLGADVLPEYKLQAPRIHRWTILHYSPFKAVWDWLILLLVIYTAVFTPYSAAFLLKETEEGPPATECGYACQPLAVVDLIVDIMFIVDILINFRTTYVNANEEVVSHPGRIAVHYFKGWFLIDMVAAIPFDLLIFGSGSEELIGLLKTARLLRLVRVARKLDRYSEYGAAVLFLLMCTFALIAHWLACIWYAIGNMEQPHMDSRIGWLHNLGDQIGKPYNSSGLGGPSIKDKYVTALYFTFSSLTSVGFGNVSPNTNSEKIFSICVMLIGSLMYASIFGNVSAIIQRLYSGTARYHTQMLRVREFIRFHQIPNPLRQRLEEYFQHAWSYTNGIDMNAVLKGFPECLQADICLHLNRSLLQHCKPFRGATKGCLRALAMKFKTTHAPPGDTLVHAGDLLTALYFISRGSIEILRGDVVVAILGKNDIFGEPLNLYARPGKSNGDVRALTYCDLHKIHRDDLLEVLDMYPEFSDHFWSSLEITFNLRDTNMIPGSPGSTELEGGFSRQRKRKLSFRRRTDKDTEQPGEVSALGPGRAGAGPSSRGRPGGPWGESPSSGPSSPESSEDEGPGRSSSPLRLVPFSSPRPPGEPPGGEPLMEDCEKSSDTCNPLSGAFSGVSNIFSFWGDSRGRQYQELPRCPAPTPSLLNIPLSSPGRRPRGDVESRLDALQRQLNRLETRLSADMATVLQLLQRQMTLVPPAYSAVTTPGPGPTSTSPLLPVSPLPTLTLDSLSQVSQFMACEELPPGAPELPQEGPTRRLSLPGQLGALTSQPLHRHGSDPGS
`COc1cccc(OCC(Cn2c(C)nc3ccccc32)OC(C)=O)c1` (stereo not drawn) was tested, and the “hERG current change (%, negative = inhibition) at 1uM” value was -2.07%.
`Cc1onc(-c2ccccc2)c1C(=O)OCC(=O)N(C)c1c(N)n(Cc2ccccc2)c(=O)[nH]c1=O` was tested, and the “hERG current change (%, negative = inhibition) at 1uM” value was 3.73%.
`COc1ccc(C(=O)/C(C)=N/O)cc1OC` was tested, and the “hERG current change (%, negative = inhibition) at 1uM” value was 4.5%.
In the case of `CSc1ccccc1NC(=O)CN(C)Cc1cccc(Cl)c1.O=C(O)C(=O)O`, the “hERG current change (%, negative = inhibition) at 1uM” value is reported as 14.9%.
`Cc1ccc(S(=O)(=O)c2c(N)n(NC(=O)C3CC3)c3nc4ccccc4nc23)cc1` was tested, and the “hERG current change (%, negative = inhibition) at 1uM” value was 8.33%.
For `COc1ccc(S(=O)(=O)NCCC(=O)NCc2ccccc2)cc1`, the “hERG current change (%, negative = inhibition) at 1uM” value was -2.71%.
`CCOc1cc2c(cc1OCC)C(C(=O)O)C(c1ccc(OC)c(O)c1)N(C)C2=O` (stereo not drawn) was tested, and the “hERG current change (%, negative = inhibition) at 1uM” value was 16%.
In the case of `O=C(NC1CCN(C(=O)N2CCOCC2)CC1)c1ccccc1`, the “hERG current change (%, negative = inhibition) at 1uM” value is reported as 7.17%.
With `COc1cccc(NC(=O)CCC2CCN(C(=O)Cc3cccc(F)c3)CC2)c1` the “hERG current change (%, negative = inhibition) at 1uM” value was 5.3%.
In the case of `O=C(COC(=O)CSc1ccc(F)cc1)NCc1ccco1`, the “hERG current change (%, negative = inhibition) at 1uM” value is reported as 9.26%.
With `O=C(NC(=S)Nc1ccccn1)c1ccco1` the “hERG current change (%, negative = inhibition) at 1uM” value was 12%.
With `COc1cccc(NC(=O)CN2CCN(CC(=O)Nc3ccc(F)cc3)CC2)c1` the “hERG current change (%, negative = inhibition) at 1uM” value was -90.6%.
In the case of `CCCN(C(=S)Nc1ccccc1)C1CCS(=O)(=O)C1` (stereo not drawn), the “hERG current change (%, negative = inhibition) at 1uM” value is reported as 20.2%.
`COC(=O)C1=C(N)Oc2c(oc(CO)cc2=O)C1c1c(F)cccc1Cl` (stereo not drawn) was tested, and the “hERG current change (%, negative = inhibition) at 1uM” value was 5.13%.
In the case of `CCOC(=O)CC(=O)Nc1cc(Cl)ccc1O`, the “hERG current change (%, negative = inhibition) at 1uM” value is reported as -0.29%.
With `Cc1c(C)n(C(=O)CN2CCC(C)CC2)c2ccccc12` the “hERG current change (%, negative = inhibition) at 1uM” value was 6.02%.
`COc1ccc(C(=O)NCC(=O)OCC(=O)N2N=C(c3ccc(Cl)cc3)CC2c2ccco2)cc1OC` (stereo not drawn) was tested, and the “hERG current change (%, negative = inhibition) at 1uM” value was 14.1%.
For `CCCCN(CCCC)CP(=O)(c1ccccc1)c1ccccc1`, the “hERG current change (%, negative = inhibition) at 1uM” value was 4.98%.
With `O=C(CC(C(=O)O)c1ccc(Cl)cc1Cl)c1ccc(Cl)cc1` (stereo not drawn) the “hERG current change (%, negative = inhibition) at 1uM” value was 12.3%.
In the case of `O=C(NCc1ccccn1)c1cccc(NS(=O)(=O)c2ccccc2)c1`, the “hERG current change (%, negative = inhibition) at 1uM” value is reported as 15.7%.
For `O=C(O)c1cc(/C=C/C(=O)c2cc(F)ccc2O)c2c(c1)COCO2`, the “hERG current change (%, negative = inhibition) at 1uM” value was 2.04%.
For `CN(Cc1nc(-c2cccnc2)no1)S(=O)(=O)c1ccc2ccccc2c1`, the “hERG current change (%, negative = inhibition) at 1uM” value was -11.2%.
In the case of `CCc1nc(CNC(=O)c2cc(OC)c(OC)c(OC)c2)no1`, the “hERG current change (%, negative = inhibition) at 1uM” value is reported as 9.7%.
In the case of `CC(=O)C1=NN(c2ccccc2)C2(S1)S/C(=C\c1ccccc1)C(=O)N2c1ccccc1` (stereo not drawn), the “hERG current change (%, negative = inhibition) at 1uM” value is reported as 16.8%.
